Source: PubChem BioAssay AID504706 (National Center for Advancing Translational Sciences (NCATS), 2011)
Among all 320,000 compounds or so, about 200 (0.062%) were called active. The shares of active, inactive and inconclusive entries below differ from those in the screen. Calls follow the shape of the dose curve; as a rule, active = well fitted activation curve with a large enough effect; inconclusive = small, poorly fitted or top-dose-only effect; inactive = no such curve, though single readings can be large or run the other way. No potency is given beside an inconclusive call; the fits are too rough.

Assay: qHTS assay for re-activators of p53 using a Luc reporter; also: nearly all actives have a fitted effect of over 45% in size; as to activity change, positive = activation: % of control where 0% means no effect
Details: H1299 p53-A138V BP100-luciferase reporter, luminescence, 24 h; series mostly up to 92.2 µM; activity change, positive = activation: at the top concentration
Summary of the method: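 H1299 (p53-null), stable ts p53-A138V + BP100-Luc; 1000 cells/well, Opti-MEM/10% FBS; cpd 4 pt, 1:5; 24 h, 37 deg C, 5% CO2; detection reagent 10 min RT; luminescence.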
Potency is read from the fitted curve at half-maximal effect; tags tell the direction and shape of the fitted curve.

| Structure (SMILES) | activity change, positive = activation | Potency |
| --- | --- | --- |
| Cc1ccc(C(=O)OCc2nc3ccsc3c(=O)[nH]2)o1 | inactive: -5.51% | – |
| Nc1nc(CSc2ncn(-c3ccccc3)n2)cs1 | – | inconclusive [activator, partial curve, poor fit] |
| O=C(NC(=S)NCCC1=CCCCC1)c1ccccc1Br | – | inconclusive [activator, full curve] |
| O=C(Cc1ccccc1)NCC(=O)OCC(=O)c1ccc(Cl)c([N+](=O)[O-])c1 | – | inconclusive [activator, single point] |
| CCOc1ccc(NS(=O)(=O)c2cc(C(=O)NCCCN3CCCC3=O)ccc2C)cc1 | inactive: 0.941% | – |
| Cc1ccc(NCc2ccccc2F)cc1 | – | inconclusive [activator, single point] |
| Cc1ccc2nc(-c3cccc(N)c3)[nH]c2c1 | – | inconclusive [activator, full curve, poor fit] |
| CN(Cc1ccccc1)C(=O)c1cccc(NC(=O)Cc2cccc([N+](=O)[O-])c2)c1 | inactive: -3.94% | – |
| C=C(C)CSc1nnc(-c2ccc(OC)cc2)n1N | – | inconclusive [activator, partial curve, poor fit] |
| O=C(NN1C(=O)/C(=C/c2ccc(O)c(O)c2)SC1=S)c1ccccc1 | inactive: -30.7% | – |
| CC(=O)c1cccc(NS(=O)(=O)c2ccc(-c3cnc(C4CC4)o3)cc2)c1 | inactive: -3.33% | – |
| NC(=O)c1ccccc1NC(=O)c1ccc2c(c1)OCO2 | – | inconclusive [activator, full curve, poor fit] |
| Cc1ccc(NC(=O)COC(=O)CCc2c(C)nc3ncnn3c2C)cc1 | – | inconclusive [activator, single point] |
| CC(=O)Nc1nc(SCCCc2ccccc2)n[nH]1 | – | inconclusive [activator, partial curve, poor fit] |
| C[C@H](NC(=O)c1nc[nH]c1C(=O)N1CCN(c2ccccc2)CC1)C(=O)OCc1ccccc1 | inactive: 14% | – |
| Cc1cccc(NC(=S)N2CCN(c3ccccn3)CC2)c1 | – | inconclusive [activator, single point] |
| Cc1nc2ccccc2n1CCc1ccccc1 | inactive: 3.05% | – |
| COc1ccc(C(=O)Nc2ccc(F)cc2F)cc1 | – | inconclusive [activator, partial curve, poor fit] |
| CC(=O)c1ccc(NC(=O)CCc2nnc3ccc(N4CCC5(CC4)OCCO5)nn23)cc1 | – | inconclusive [activator, partial curve, poor fit] |
| COc1cc(C=Nc2ccccc2C(=O)Nc2ccccc2)cc(OC)c1OC | inactive: -0.0593% | – |
| COc1ccc(S(=O)(=O)N(C)C)cc1NCC(=O)Nc1ccc(Br)c(C)c1 | inactive: -1.33% | – |
| COc1cccc(NC(=O)c2cc3cccc(OC)c3o/c2=N\O)c1 | – | inconclusive [activator, full curve, poor fit] |
| Cc1nc2cc(-c3cccc(Cl)c3)nn2c(N2CCN(C(=O)c3ccco3)CC2)c1C | – | inconclusive [activator, full curve, poor fit] |
| CC(C)(C)c1ccc(C(=O)Nc2cccc3c(=O)[nH][nH]c(=O)c23)cc1 | – | inconclusive [activator, partial curve, poor fit] |

| Structure (SMILES) | activity change, positive = activation | Potency |
| --- | --- | --- |
| Nc1nc(SCc2cccc(Br)c2)n[nH]1 | – | inconclusive [activator, full curve, poor fit] |
| O=C(c1cc2c(s1)CCCCC2)N1CCN(c2ncccn2)CC1 | inactive: 12.7% | – |
| CCOC(=O)c1ccc(NCc2ccc3c(c2)OCO3)cc1 | – | inconclusive [activator, partial curve, poor fit] |
| COc1ccc(-c2cc3ncccc3cn2)cc1 | – | inconclusive [activator, full curve, poor fit] |
| Nc1ccccc1SCC(=O)Nc1nccs1 | inactive: 2.51% | – |
| Cc1ccc(NC(=O)C2CCCO2)cc1[N+](=O)[O-] (configuration not stated) | – | inconclusive [activator, partial curve, poor fit] |
| COc1ccc(C(=O)NC(=S)Nc2ccccc2N2CCCCC2)cc1[N+](=O)[O-] | inactive: 3.73% | – |
| CCC(=O)n1nc(-c2ccccc2)nc1NCc1ccccc1 | – | inconclusive [activator, single point] |
| Cc1ccc(C(=O)O/N=C(\N)c2ccc(C(F)(F)F)cn2)cc1 | – | inconclusive [activator, partial curve, poor fit] |
| Cc1ccccc1Nc1c(-c2ccc(N3CCOCC3)cc2)nc2cnccn12 | inactive: 10.3% | – |
| Cn1c(CN2CCCC2)nc2cc(NC(=O)c3ccc(Cl)cc3)ccc21 | – | inconclusive [activator, full curve, poor fit] |
| OC1C=CSc2nc3ccccc3n21 (configuration not stated) | – | inconclusive [activator, full curve] |
| N#Cc1c(-c2ccco2)cc(-c2ccccc2)[nH]c1=O | inactive: -3.98% | – |
| C/C(=N\Nc1nc2ccccc2s1)c1cccs1 | – | inconclusive [activator, full curve, poor fit] |
| Cc1ccc(C(C)C)c(OCc2nc(-c3nonc3N)no2)c1 | – | inconclusive [activator, full curve, poor fit] |
| COc1ccccc1NC(=O)COc1ccccc1C(=O)c1cnn(-c2ccccc2)c1 | – | inconclusive [activator, partial curve, poor fit] |
| CC(CN1CCN(C)CC1)OC(=O)c1ccc(Cl)cc1 (configuration not stated) | – | inconclusive [activator, single point] |
| Cc1nc2ccc(NC(=O)Cc3ccc(Br)cc3)cc2s1 | inactive: 2.57% | – |
| COc1cc(N=c2ssnc2Cl)cc(OC)c1 | inactive: -5.97% | – |
| COc1ccc(C(=O)Sc2ccc(Cl)cc2)cc1OC | – | inconclusive [activator, single point] |
| CCN(CC)C(=O)Cn1cc(S(=O)(=O)CC(=O)NC2CCCCC2)c2ccccc21 | inactive: 0.641% | – |
| Cc1cc(C)nc(NS(=O)(=O)c2ccc(NS(=O)(=O)c3ccsc3)cc2)n1 | inactive: 2.32% | – |
| NC(=S)NC(=O)/C=C/c1ccccc1 | – | inconclusive [activator, partial curve, poor fit] |
| CC1CCN(c2nc3c(c(=O)[nH]c(=O)n3C)n2CCCc2ccccc2)CC1 | – | inconclusive [activator, single point] |

| Structure (SMILES) | activity change, positive = activation | Potency |
| --- | --- | --- |
| CCN(CC)c1ccc(/C=N/NC(=O)Cc2cccs2)cc1 | – | inconclusive [activator, partial curve, poor fit] |
| O=C(c1ccc(-c2ccc([N+](=O)[O-])cc2)o1)N1CCCCCCC1 | – | inconclusive [activator, partial curve, poor fit] |
| Cc1ccccc1-n1c(C)c(C#N)c(=O)c(-[n+]2ccccc2)c1[S-] | – | inconclusive [activator, partial curve, poor fit] |
| Cc1[nH]nc2oc(=O)c(CCO)c(C)c12 | inactive: -2.93% | – |
| C=CCNC(=S)NNC(=O)C(CC(C)C)CC(C)O (configuration not stated) | inactive: -3.48% | – |
| COc1cccc(/C=C/C(=O)c2ccc[nH]2)c1 | – | inconclusive [activator, partial curve, poor fit] |
| COc1ccc(OC)c(N=c2oc3cc(O)ccc3cc2C(N)=O)c1 | – | inconclusive [activator, single point] |
| CC(=O)NC12CC3CC(C1)CC(C(=O)OCC(=O)c1ccc4c(c1)OCCO4)(C3)C2 | – | inconclusive [activator, partial curve, poor fit] |
| COc1ccccc1NCC(=O)N/N=C/C=C/c1ccccc1 | – | inconclusive [activator, partial curve] |
| NC(=O)c1ccccc1NC(=O)COc1ccc(Cl)cc1 | – | inconclusive [activator, single point] |
| Cc1ccc(OCC(=O)N2CCc3ccccc3C2)c(Br)c1 | inactive: 15.7% | – |
| O=C(NC(Cc1c[nH]c2ccccc12)C(=O)Nc1ccc(F)c([N+](=O)[O-])c1)c1cccs1 (configuration not stated) | – | inconclusive [activator, partial curve, poor fit] |
| CCCn1c(SCC(=O)c2cc(C)n(C3CC3)c2C)n[nH]c1=O | – | inconclusive [activator, full curve, poor fit] |
| CCNc1nc(-c2ccc(Cl)cc2)cs1 | – | inconclusive [activator, partial curve, poor fit] |
| COc1ccc(/C=C/C(=O)c2ccncc2)c2ccccc12 | inactive: 1.71% | – |
| Cc1ccc(-c2nnc(SCC#CCOC(=O)c3cccs3)o2)cc1 | inactive: 7.24% | – |
| COc1cccc([C@@H]2Oc3ccc(OC)cc3C(=O)[C@H]2O)c1 | – | inconclusive [activator, partial curve, poor fit] |
| O=C(COc1cccnc1[N+](=O)[O-])N1CCc2ccccc21 | inactive: 4.26% | – |
| Cc1c(Cl)c([N+](=O)[O-])nn1CCCC(=O)NCCc1ccccc1 | – | inconclusive [activator, partial curve, poor fit] |
| NC(=O)NOCc1ccccc1F | inactive: -1.83% | – |
| COc1ccccc1CNC(=O)COC(=O)C1CC1 | – | inconclusive [activator, partial curve, poor fit] |
| N#CC1(NC(=O)COC(=O)c2ccc(-c3ccc(O)cc3)cc2)CCCCC1 | – | inconclusive [activator, partial curve, poor fit] |
| CC1CCCN(C(=O)CSc2nc3ccccc3o2)C1 (configuration not stated) | – | inconclusive [activator, full curve, poor fit] |
| Cc1ccc(NC(CC(=O)c2ccccc2)C(=O)O)cc1Cl (configuration not stated) | – | inconclusive [activator, partial curve, poor fit] |
